Where a chain is given by its changes, count along the chain named. The list shows a part of the results.

T1: RBFOX1 RRM (Homo sapiens, UniProt Q9NWB1 109-208)
T1 sequence: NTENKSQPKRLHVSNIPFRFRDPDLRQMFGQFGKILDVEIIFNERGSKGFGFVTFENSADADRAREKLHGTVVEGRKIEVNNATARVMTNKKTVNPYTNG

B1: GGUUCCG (DNA:RNA)
RNA: GGGAGACCGGAAUUCAGAUUGUCCGGUUCCGUUAAAUCCCGUCGUAGCCACCA
DNA 1: CAATCTGAATTCCGGTCTCCC
DNA 2: TGGTGGCTACGACGGGATT
B2: AUGUCCA (DNA:RNA)
RNA: B1 RNA with G25A, G26U, U27G, G31A
DNA 1: CAATCTGAATTCCGGTCTCCC
DNA 2: TGGTGGCTACGACGGGATT
B3: AAUUACA (DNA:RNA)
RNA: B1 RNA with G25A, G26A, C29A, G31A
DNA 1: CAATCTGAATTCCGGTCTCCC
DNA 2: TGGTGGCTACGACGGGATT
B4: UCUUGAU (DNA:RNA)
RNA: B1 RNA with G25U, G26C, C29G, C30A, G31U
DNA 1: CAATCTGAATTCCGGTCTCCC
DNA 2: TGGTGGCTACGACGGGATT
B5: CGGCGAG (DNA:RNA)
RNA: B1 RNA with G25C, U27G, U28C, C29G, C30A
DNA 1: CAATCTGAATTCCGGTCTCCC
DNA 2: TGGTGGCTACGACGGGATT
B6: ACAACGC (DNA:RNA)
RNA: B1 RNA with G25A, G26C, U27A, U28A, C30G, G31C
DNA 1: CAATCTGAATTCCGGTCTCCC
DNA 2: TGGTGGCTACGACGGGATT
B7: CAACCAC (DNA:RNA)
RNA: B1 RNA with G25C, G26A, U27A, U28C, C30A, G31C
DNA 1: CAATCTGAATTCCGGTCTCCC
DNA 2: TGGTGGCTACGACGGGATT
B8: GCCAAGA (DNA:RNA)
RNA: B1 RNA with G26C, U27C, U28A, C29A, C30G, G31A
DNA 1: CAATCTGAATTCCGGTCTCCC
DNA 2: TGGTGGCTACGACGGGATT
B9: GCUGGUA (DNA:RNA)
RNA: B1 RNA with G26C, U28G, C29G, C30U, G31A
DNA 1: CAATCTGAATTCCGGTCTCCC
DNA 2: TGGTGGCTACGACGGGATT
B10: UAACGUU (DNA:RNA)
RNA: GGGAGACCGGAAUUCAGAUUGUCCUAACGUUUUAAAUCCCGUCGUAGCCACCA
DNA 1: CAATCTGAATTCCGGTCTCCC
DNA 2: TGGTGGCTACGACGGGATT
B11: GGCUACU (DNA:RNA)
RNA: B1 RNA with U27C, C29A, G31U
DNA 1: CAATCTGAATTCCGGTCTCCC
DNA 2: TGGTGGCTACGACGGGATT
B12: ACACCUU (DNA:RNA)
RNA: B10 RNA with U25A, A26C, G29C
DNA 1: CAATCTGAATTCCGGTCTCCC
DNA 2: TGGTGGCTACGACGGGATT
B13: UCGCCGA (DNA:RNA)
RNA: B10 RNA with A26C, A27G, G29C, U30G, U31A
DNA 1: CAATCTGAATTCCGGTCTCCC
DNA 2: TGGTGGCTACGACGGGATT
B14: UAUCGGC (DNA:RNA)
RNA: B10 RNA with A27U, U30G, U31C
DNA 1: CAATCTGAATTCCGGTCTCCC
DNA 2: TGGTGGCTACGACGGGATT
B15: UACAGUC (DNA:RNA)
RNA: B10 RNA with A27C, C28A, U31C
DNA 1: CAATCTGAATTCCGGTCTCCC
DNA 2: TGGTGGCTACGACGGGATT
B16: UAGUCUA (DNA:RNA)
RNA: B10 RNA with A27G, C28U, G29C, U31A
DNA 1: CAATCTGAATTCCGGTCTCCC
DNA 2: TGGTGGCTACGACGGGATT
B17: GUACGCG (DNA:RNA)
RNA: B1 RNA with G26U, U27A, U28C, C29G
DNA 1: CAATCTGAATTCCGGTCTCCC
DNA 2: TGGTGGCTACGACGGGATT
B18: AUGAGAC (DNA:RNA)
RNA: B10 RNA with U25A, A26U, A27G, C28A, U30A, U31C
DNA 1: CAATCTGAATTCCGGTCTCCC
DNA 2: TGGTGGCTACGACGGGATT
B19: GUAUCCA (DNA:RNA)
RNA: B1 RNA with G26U, U27A, G31A
DNA 1: CAATCTGAATTCCGGTCTCCC
DNA 2: TGGTGGCTACGACGGGATT
B20: ACGUUCU (DNA:RNA)
RNA: B1 RNA with G25A, G26C, U27G, C29U, G31U
DNA 1: CAATCTGAATTCCGGTCTCCC
DNA 2: TGGTGGCTACGACGGGATT
B21: CAGUCGG (DNA:RNA)
RNA: B1 RNA with G25C, G26A, U27G, C30G
DNA 1: CAATCTGAATTCCGGTCTCCC
DNA 2: TGGTGGCTACGACGGGATT
B22: GCUAGGA (DNA:RNA)
RNA: B1 RNA with G26C, U28A, C29G, C30G, G31A
DNA 1: CAATCTGAATTCCGGTCTCCC
DNA 2: TGGTGGCTACGACGGGATT
B23: AUACCGC (DNA:RNA)
RNA: B10 RNA with U25A, A26U, G29C, U30G, U31C
DNA 1: CAATCTGAATTCCGGTCTCCC
DNA 2: TGGTGGCTACGACGGGATT
B24: UCCAGGG (DNA:RNA)
RNA: B10 RNA with A26C, A27C, C28A, U30G, U31G
DNA 1: CAATCTGAATTCCGGTCTCCC
DNA 2: TGGTGGCTACGACGGGATT
B25: UUGUCCC (DNA:RNA)
RNA: B1 RNA with G25U, G26U, U27G, G31C
DNA 1: CAATCTGAATTCCGGTCTCCC
DNA 2: TGGTGGCTACGACGGGATT
B26: AGGGGAG (DNA:RNA)
RNA: B1 RNA with G25A, U27G, U28G, C29G, C30A
DNA 1: CAATCTGAATTCCGGTCTCCC
DNA 2: TGGTGGCTACGACGGGATT
B27: UUCCUCU (DNA:RNA)
RNA: B10 RNA with A26U, A27C, G29U, U30C
DNA 1: CAATCTGAATTCCGGTCTCCC
DNA 2: TGGTGGCTACGACGGGATT
B28: AGUUCAA (DNA:RNA)
RNA: B1 RNA with G25A, C30A, G31A
DNA 1: CAATCTGAATTCCGGTCTCCC
DNA 2: TGGTGGCTACGACGGGATT
B29: UAGUAUA (DNA:RNA)
RNA: B10 RNA with A27G, C28U, G29A, U31A
DNA 1: CAATCTGAATTCCGGTCTCCC
DNA 2: TGGTGGCTACGACGGGATT
B30: UAUAGGA (DNA:RNA)
RNA: B10 RNA with A27U, C28A, U30G, U31A
DNA 1: CAATCTGAATTCCGGTCTCCC
DNA 2: TGGTGGCTACGACGGGATT
B31: AGAAGCA (DNA:RNA)
RNA: B1 RNA with G25A, U27A, U28A, C29G, G31A
DNA 1: CAATCTGAATTCCGGTCTCCC
DNA 2: TGGTGGCTACGACGGGATT

For the experiment, the target named is T1, RBFOX1 RRM. The experiment in a line: EMSA; HiTS-Eq, 1 nM pool, 10 min; buffer printed only for the single-RNA assays: 10 mM Tris pH 7.5, 150 mM NaCl, 3.4 mM EDTA, 0.001% NP-40, 30 C. Conditions: tags: His6 N-terminal (pET28a); label: 5' 32P. In short, it runs like this: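 These values rest on relative association constants, computed from read-count changes of each RNA species versus the control reaction and normalised to the cognate motif. Reads came from free RNA recovered by 8% native PAGE after purified RbFox RRM (wild type or mutant) at increasing concentrations was equilibrated for 10 min in 50 µL with 1 nM of a 5′-radiolabelled pool with 7 randomized nucleotides and DNA-annealed flanks.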
(In general: A gel shift assay detects complexes by their altered migration in electrophoresis.)
As for B1, the binding signal is 0.0168 KA relative to UGCAUGU.
The result for B2 reads 0.00494 KA relative to UGCAUGU; that for B3, 0.00153 KA relative to UGCAUGU.
For the molecule B4, the binding signal was 0.0155 KA relative to UGCAUGU.
The result for B5 reads 0.0186 KA relative to UGCAUGU; that for B6, 0.00245 KA relative to UGCAUGU.
Take B7: the binding signal was 0.000237 KA relative to UGCAUGU.
With B8 the figure was 0.0151 KA relative to UGCAUGU; with B9, 0.0214 KA relative to UGCAUGU; with B10, 0.00814 KA relative to UGCAUGU.
The result for B11 reads 0.0114 KA relative to UGCAUGU; that for B12, 0.000558 KA relative to UGCAUGU.
B13: the binding signal was 0.0122 KA relative to UGCAUGU.
With B14 the figure was 0.0104 KA relative to UGCAUGU.
Turning to B15, the binding signal was 0.00675 KA relative to UGCAUGU.
With B16, the binding signal is 0.00586 KA relative to UGCAUGU.
In the case of B17, the binding signal is 0.0105 KA relative to UGCAUGU.
In the case of B18, the binding signal is 0.00702 KA relative to UGCAUGU.
Consider B19, for which the binding signal was 0.00724 KA relative to UGCAUGU.
For B20, the binding signal was 0.00892 KA relative to UGCAUGU.
With B21 the figure was 0.0104 KA relative to UGCAUGU.
Take B22: the binding signal was 0.00693 KA relative to UGCAUGU.
With B23 the figure was 0.00238 KA relative to UGCAUGU; with B24, 0.00615 KA relative to UGCAUGU.
For the molecule B25, the binding signal is 0.0102 KA relative to UGCAUGU.
With B26, the binding signal is 0.0135 KA relative to UGCAUGU.
As to B27, the binding signal is 0.0101 KA relative to UGCAUGU.
The result for B28 reads 0.00452 KA relative to UGCAUGU; that for B29, 0.00856 KA relative to UGCAUGU.
The result for B30 reads 0.00674 KA relative to UGCAUGU.
The result for B31 reads 0.0083 KA relative to UGCAUGU.

The record behind these values is paper PMC9911399, “Two distinct binding modes provide the RNA-binding protein RbFox with extraordinary sequence specificity”.
